# Results: the supplement of paper PMC12217912
# The list shows a part of the results. Sequences were assembled here from the parent chain. Inactive controls read about 0.05.
# B1: TEV protease; numbered along this chain (parent)
# chain: MGESLFKGPRDYNPISSSICHLTNESDGHTTSLYGIGFGPFIITNKHLFRRNNGTLVVQSLHGVFKVKDTTTLQQHLVDGRDMIIIRMPKDFPPFPQKLKFREPQREERICLVTTNFQTKSMSSMVSDTSCTFPSGDGIFWKHWIQTKDGQCGSPLVSTRDGFIVGIHSASNFTNTNNYFTSVPKNFMELLTNQEAQQWVSGWRLNADSVLWGGHKVFMVKPEEPFQPVKEATQL
# Variants of: B1
# Assay: raw area under fraction-flipped curve 0-4 h after induction (AUC4h, not background-subtracted), DNA-recorder readout of cleavage of the substrate (dimensionless); higher = more cleavage of the substrate by the protease variant
# Details: temperature: 34 °C; time window: 0-4 h after rhamnose induction
# Procedure: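 In vivo DNA recorder in E. coli TOP10(DE3) ΔrhaA at 34 °C. Each TEVp single-site mutant (parent TEVp 0) is paired with a single-site variant of the 7-mer TEVs (canonical ENLYFQ|S). The substrate sits between flexible linkers in a Bxb1-sfGFP-TEVs-SsrA fusion, so cleavage stabilises Bxb1 and speeds flipping of a recombination array, read by NGS. The value is the raw area under the fraction-flipped curve over 0-4 h after rhamnose induction (AUC4h), with ≥20 reads per time point. It is not background-subtracted; inactive controls average about 0.047.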
# 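Note: Bxb1 expression induced with 0.2% (w/v) L-rhamnose at OD600 near 0.5, cultures sampled hourly, flipped fraction per protease–substrate barcode pair counted by paired-end Illumina sequencing.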
Variant,area with substrate ENLYDQS,area with substrate ENLYGQS,area with substrate ENLYHQS,area with substrate ENLYMQS,area with substrate ENLYNQS,area with substrate ENLYPQS,area with substrate ENLYQQS,area with substrate ENLYVQS,area with substrate ENLYWQS,area with substrate ENLYYQS,area with substrate ENLYEQS,area with substrate ENLYIQS,area with substrate ENLYKQS,area with substrate ENLYLQS,area with substrate ENLYRQS,area with substrate ENLYSQS,area with substrate ENLYTQS
P222I,0.0734,0.0549,0.0556,0.0883,0.0773,0.064,0.0552,0.0905,0.0695,0.0666,,,,,,,
F226G,0.0616,0.057,0.0762,0.0418,0.0688,0.074,,0.0903,,,0.0502,0.0699,0.0538,0.0637,0.0596,0.0676,0.0979
Q227W,0.0677,0.0793,0.0631,0.0711,0.0283,0.099,0.0793,0.0473,0.0805,,0.0628,0.13,0.0583,,0.054,,
V229Q,0.067,,0.0818,0.0851,0.0771,,0.0564,0.113,0.0884,0.067,0.0612,0.0904,0.0287,0.0553,0.06,,
T233M,0.0518,0.0765,0.0733,0.0776,,0.0709,0.0146,0.119,0.0635,,0.0655,0.12,0.0399,,,,
L235E,0.0485,,,,0.0634,,,,0.124,0.057,0.069,,,,,,
E3C,,,0.0607,0.101,0.0938,,,0.163,,,0.0743,,,,,,
P14K,,0.0635,0.0563,0.0881,0.0656,0.0631,0.0614,0.109,0.0744,,0.0571,0.0946,0.0883,,0.0517,0.0566,0.0619
D27G,,,0.0566,0.0026,0.0675,0.0279,,0.164,0.065,0.0541,0.0822,0.111,0.0558,,0.0666,,
G28Q,,,0.0577,0.118,0.0589,0.0562,0.0542,0.12,0.0825,,0.0651,,,0.0736,0.0617,0.0596,
H29I,,0.0677,0.0668,0.0838,0.0711,,,,0.0717,,0.0895,0.12,0.0804,,,,0.0886
G39Y,,0.0419,0.0369,,0.0394,0.0378,0.0403,0.0453,0.0353,,0.0466,0.0462,0.0402,,0.069,0.0434,
I43H,,0.0524,0.0482,0.0359,0.0433,0.0425,0.0471,0.0429,0.0382,,0.0464,0.0521,0.0358,0.0455,0.0369,0.0364,0.0475
T44N,,,0.0424,0.0473,0.0378,0.0324,0.0465,,,0.0431,0.0266,0.045,0.0337,,0.0478,0.0486,0.0483
K66M,,0.0542,0.0688,,0.0572,0.0774,,,0.114,0.0558,0.0628,0.125,0.0692,,,0.0795,0.081
K68A,,0.0473,0.062,0.0876,0.0674,0.0583,0.0675,,0.0808,,0.0774,0.126,0.0374,,0.062,0.0829,0.14

Variant,area with substrate ENLYDQS,area with substrate ENLYGQS,area with substrate ENLYHQS,area with substrate ENLYMQS,area with substrate ENLYNQS,area with substrate ENLYPQS,area with substrate ENLYQQS,area with substrate ENLYVQS,area with substrate ENLYWQS,area with substrate ENLYYQS,area with substrate ENLYEQS,area with substrate ENLYIQS,area with substrate ENLYKQS,area with substrate ENLYLQS,area with substrate ENLYRQS,area with substrate ENLYSQS,area with substrate ENLYTQS
D79W,,0.0523,0.0687,0.0846,0.0709,0.0792,0.0689,0.104,,0.0566,0.074,0.0989,0.0808,0.0848,0.0706,,0.0905
D82H,,,0.0539,,0.0664,0.0503,,0.0416,0.0167,,0.0577,0.0555,0.0602,,0.0543,0.0531,
K98F,,0.0581,0.084,,0.0579,0.0599,,0.0918,0.0802,0.0751,0.0728,0.124,,0.0719,0.0538,,0.0694
K98P,,0.0657,0.0665,,0.0557,0.068,0.0651,0.125,,0.0858,0.0634,0.12,0.0655,,,0.055,0.0755
E107L,,0.0586,0.0774,,,,0.058,,0.0441,0.0498,0.11,,,,0.0627,0.0774,
C111H,,,0.083,,0.0661,0.119,,0.0968,0.0807,,0.0746,0.124,0.056,0.0904,0.0712,0.0697,
T129L,,0.0779,0.072,0.0524,0.0748,0.0801,,0.133,0.0536,,0.0673,0.111,0.0566,,0.0573,,
T132E,,0.0559,0.0563,0.0536,0.057,0.0649,0.0504,,,0.0222,0.0494,0.0625,,0.0531,0.0629,0.0586,0.0484
P134W,,0.0573,0.0571,0.0641,0.0575,0.0591,0.0556,0.0605,0.0583,0.0627,0.0626,0.0831,0.057,,,,0.079
D137V,,,0.0957,,0.0426,0.0877,,0.146,0.0954,0.0555,0.0709,,0.0823,,,,0.0923
F140W,,0.0316,0.0597,,0.0435,,0.0539,,,,0.078,0.076,,,0.0481,,
Y179E,,0.0619,0.0271,,0.0489,,,,,,0.0677,0.064,,,,0.0607,
V183D,,,0.0419,0.0481,0.0541,0.0535,,,,0.0365,0.0578,0.052,0.0517,,0.0559,,0.0312
L191P,,0.0635,0.0493,0.0377,0.0416,0.0564,,0.0599,,,0.0512,,0.0617,,,,0.057
Q194H,,,0.0841,0.104,0.0649,,0.0559,0.167,,0.077,0.0596,,0.0709,,0.057,0.0598,0.0666
